Source: the RNAGym collection of RNA variant scans (doi:10.7554/elife.90254)
Read counts are not given, so values of variants with three or more changes are uncertain.

B1: LINE1-mini (parent)
chain: GGCAGAGCUCAACACAGCGUGGCAAAGUGGCUGUGGCUAGACUGCC

Variants of: B1
Assay: self-cleavage, relative activity (ratio to wild type); higher = more cleavage; in vitro, sequencing; the parent is a self-cleaving ribozyme
U32C G40U C46A gave a self-cleavage of 0.05.
For A14U C15G C23U C46G, the self-cleavage was 0.03.
C10U C18U G21A U34C showed a self-cleavage of 0.03.
C10U G19U C31A gave a self-cleavage of 0.05.
Work on G5C C10U U20A yielded a self-cleavage of 0.03.
In the case of G5U U9G C15G C31U G36U, the self-cleavage is reported as 0.06.
With G29C G30C A39U the self-cleavage was 0.09.
For C18A A26C A39G, the self-cleavage was 0.03.
Variant G2A C8G C13A G19U U28G has a self-cleavage of 0.09.
In the case of C18U G33U U43G C46A, the self-cleavage is reported as 0.01.
C13A C18G G19A G29U C31U C37A gave a self-cleavage of 0.03.
Work on G17U C18U G19C C42G yielded a self-cleavage of 0.05.
For G1A G22U C37A, the self-cleavage was 0.15.
Work on A26C G36A U38A yielded a self-cleavage of 0.08.
With C8U G29U C31U the self-cleavage was 0.07.
Variant U9C G17U G36C A39G C46G has a self-cleavage of 0.01.
G1U G17U U34A showed a self-cleavage of 0.01.
For G19A G33A G36U, the self-cleavage was 0.16.
Variant A6G G19A U32A has a self-cleavage of 0.09.
Work on C15G C23G A26G C45U yielded a self-cleavage of 0.01.
Variant C10G A16G U20A A26G C37U G40U C42U C45U has a self-cleavage of 0.
A14G G19C A39U C45A gave a self-cleavage of 0.44.
Work on G2U C13A G29C yielded a self-cleavage of 0.04.
Variant C8A A25G C45U has a self-cleavage of 0.38.
Work on G2U C15U C18G yielded a self-cleavage of 0.04.
G2A G5U A11G C18G G33U G35A showed a self-cleavage of 0.
In the case of G7C C13A C18U, the self-cleavage is reported as 0.16.
In the case of C13G G19C G30A, the self-cleavage is reported as 0.02.
G17C G30A G35A showed a self-cleavage of 0.02.
For U9A C15U U32C, the self-cleavage was 0.53.
A4G A16G G17U showed a self-cleavage of 0.05.
Variant G2U G5U A11G C46U has a self-cleavage of 0.02.
In the case of G21C A25U A39C, the self-cleavage is reported as 0.1.
For G2C C23A G29U, the self-cleavage was 0.19.
A12C G21C U28G G40U gave a self-cleavage of 0.
Variant G1A G35U C46U has a self-cleavage of 0.34.
Variant C31A G35U G36U has a self-cleavage of 0.03.
C3U A14G G21U U38A U43A showed a self-cleavage of 0.12.
A16C G33U G36C U38G gave a self-cleavage of 0.02.
C3G A14G C15A G36A showed a self-cleavage of 0.19.
C10G G19C C23A showed a self-cleavage of 0.03.
In the case of C15U G30C G44C, the self-cleavage is reported as 0.03.
C23A U34C G36A A39C U43A showed a self-cleavage of 0.01.
G1C G17A G29U showed a self-cleavage of 0.03.
Variant C3G C10G G21U has a self-cleavage of 0.03.
For C18G G21C G22A, the self-cleavage was 0.05.
Variant G7A C8A C13A G21A G40U has a self-cleavage of 0.28.
For C15U G19A A26G, the self-cleavage was 1.54.
C10U C15G G40A C45A gave a self-cleavage of 0.02.
With G1U C8G A11G A26G C42G the self-cleavage was 0.03.
Work on A4U A24C C37U G40U yielded a self-cleavage of 0.01.
C23G G27A C42U showed a self-cleavage of 1.42.
In the case of G17A C18U C37U C45G, the self-cleavage is reported as 0.1.
For C15G U20C C31A, the self-cleavage was 0.03.
With C15U C18G G36A the self-cleavage was 0.02.
With C8U G21U A25G C45U the self-cleavage was 0.06.
G2A A4U A6U C31A G33U showed a self-cleavage of 0.07.
For C8G G44U C45G, the self-cleavage was 0.06.
With G1U C15A G19U U20C A41C the self-cleavage was 0.01.
C13G A16G G19U showed a self-cleavage of 0.01.
With A4U G21U A26G the self-cleavage was 0.24.
C3A C10A G17U G35U gave a self-cleavage of 0.04.
With G2U C8G U32A G36U the self-cleavage was 0.03.
For G17C G35A C37A C45G, the self-cleavage was 0.04.
For G1A A6C C13A G22U G27U G30C C42U C46G, the self-cleavage was 0.03.
For A6G U20C U38C, the self-cleavage was 0.01.
In the case of U9G A11U U20G G35U G36U, the self-cleavage is reported as 0.01.
In the case of G7U C37U C45A, the self-cleavage is reported as 0.04.
G7C G17U C23U G29A U32A G35C gave a self-cleavage of 0.19.
G5A G7A A14U U34G showed a self-cleavage of 0.3.
Work on A4G A25U G36A C37G yielded a self-cleavage of 0.12.
Work on A6C A16G U43A yielded a self-cleavage of 0.03.
G2A C10A A16G showed a self-cleavage of 0.06.
A25U U28G G29U showed a self-cleavage of 0.42.
With G1C C3A G17C G19A G36A C37U the self-cleavage was 0.18.
With G1C G17A C18G G22A A41G the self-cleavage was 0.01.
G5A G30U G36U showed a self-cleavage of 0.27.
For C10A U28C G36U G40U, the self-cleavage was 0.
With C15U G21A G22U C23A G44A the self-cleavage was 0.17.
For G22A G33C U38C, the self-cleavage was 0.02.
For C18A G19C U28G U38G U43G, the self-cleavage was 0.01.
Variant C10A C13U C23A G29U C31G has a self-cleavage of 0.02.
Variant G5A G17U U38A C42G has a self-cleavage of 0.03.
With G17U U20A C42A the self-cleavage was 0.26.
With G1U C10A A24C the self-cleavage was 0.01.
Variant G5U G21C A39U U43G has a self-cleavage of 0.25.
A14U A24G A26G G36U showed a self-cleavage of 0.02.
Variant C13A U20G U38C has a self-cleavage of 0.06.
With A6C G21U A39C G44C the self-cleavage was 0.05.
In the case of G2C U9G A25G A26G C31U U32C, the self-cleavage is reported as 0.03.
Work on A6G U20A G21C yielded a self-cleavage of 0.08.
In the case of A4U C8G C18U C23U U28C, the self-cleavage is reported as 0.11.
A6U G21A U32G showed a self-cleavage of 0.05.
C10A C15U G21U G33C U34A C46G gave a self-cleavage of 0.03.
Variant A6U G17U G22C G30U has a self-cleavage of 0.22.
For A16C U28A G29U A41C C42U, the self-cleavage was 0.06.
Work on C3A A14G C46U yielded a self-cleavage of 0.46.
Work on A24C G27U G30C C31A yielded a self-cleavage of 0.02.
Variant G1A G2U G19U G35U has a self-cleavage of 0.03.
Work on G1C A4C G21U G27A U32A yielded a self-cleavage of 0.07.
For A14G G33A G35C, the self-cleavage was 0.05.
A12C G27A G36C showed a self-cleavage of 0.
With C13G A16U A41C the self-cleavage was 0.02.
With A6C C8A A12U C37U U38A the self-cleavage was 0.04.
With G2C A4C G7C C8U G30U the self-cleavage was 0.18.
With A11C G17U C18A the self-cleavage was 0.04.
With A6G A26U G30U U34C the self-cleavage was 0.
In the case of G5A C10G C18G A26G C37A G44C, the self-cleavage is reported as 0.
G5A C23A A25U showed a self-cleavage of 0.26.
G27A U38C G40A C45A gave a self-cleavage of 0.03.
A12G C15A G40U gave a self-cleavage of 0.1.
Variant C8A G22U A26U G44A has a self-cleavage of 0.26.
Work on C3A A16U U20G G36C A39C yielded a self-cleavage of 0.16.
Work on G5A C10A G35C yielded a self-cleavage of 0.
In the case of G2A C8A C10U, the self-cleavage is reported as 0.19.
G1A C13U C23A A26G U32C C37A A39U A41C U43C gave a self-cleavage of 0.1.
Variant A11G A25G G30U has a self-cleavage of 0.01.
With C15G G17A A25G G27U G29U G33U U43G the self-cleavage was 0.03.
C3A U20G G21U gave a self-cleavage of 0.17.
Variant C3G A4U C37A C46G has a self-cleavage of 0.04.
U20G A26C U43C G44U C45G gave a self-cleavage of 0.05.
For G22C U34A G40U, the self-cleavage was 0.31.
With A4C C10A G40U the self-cleavage was 0.06.
Work on G22A C37U C42A yielded a self-cleavage of 0.1.
G7A U20A G22C gave a self-cleavage of 0.07.
G29A U38C C42U showed a self-cleavage of 1.31.
Work on G2U C10G A14G G19U G30C yielded a self-cleavage of 0.01.
With C10G G17A A26G U34A C45U the self-cleavage was 0.01.
C18G A25C C42U U43A gave a self-cleavage of 0.08.
With C31U G36A A39G the self-cleavage was 0.01.
Variant G1U C13G G19U C23U G30C has a self-cleavage of 0.03.
In the case of U9G A25U C45A, the self-cleavage is reported as 0.05.
Variant A16C G35U G40U has a self-cleavage of 0.08.
For G2A G30U U32A G35U C37U G40U C45G, the self-cleavage was 0.11.
Work on G2C C15U G36A yielded a self-cleavage of 0.15.
G22U G29A A41C showed a self-cleavage of 0.01.
A14G U20C A26U showed a self-cleavage of 1.2.
For G2C C8G G21U G22A C42G C46U, the self-cleavage was 0.66.
Variant C8A A11C G22C A25U has a self-cleavage of 0.03.
Work on C3G A4C C37G yielded a self-cleavage of 0.24.
Variant C10U A11U A16U C46U has a self-cleavage of 0.04.
A4G C10U G44C showed a self-cleavage of 0.02.
Variant G7A G35A G36U has a self-cleavage of 0.24.
A4G G17U G27C G35A gave a self-cleavage of 0.18.
For A16C A26C C37G, the self-cleavage was 0.02.
Work on C18U C23G U28A yielded a self-cleavage of 1.4.
For A4U C10A A25U G29A C31U G40C G44A C46G, the self-cleavage was 0.
With C10A C23G G36C C37A the self-cleavage was 0.01.
A12U A14C G17A gave a self-cleavage of 0.01.
G2A A6G C8A A24C A25U G30U showed a self-cleavage of 0.02.
A6G C15G G27U U38A gave a self-cleavage of 0.03.
For G1C G30U G33C, the self-cleavage was 0.02.
C3A C31G G35A C46G gave a self-cleavage of 0.04.
A6U G29U U32A gave a self-cleavage of 0.11.
Variant G1A C3A C10A A11U C15G has a self-cleavage of 0.2.
For C18G G33C G36U C45G, the self-cleavage was 0.
C8U G17A G21U G36A A39G showed a self-cleavage of 0.02.
In the case of G2U U9A A16C C23A, the self-cleavage is reported as 0.11.
Variant C3G A4C C23U G30U C45A has a self-cleavage of 0.01.
Work on C10A U20A G22A U32C yielded a self-cleavage of 0.02.
C13G A16G C23A A24C gave a self-cleavage of 0.03.
Variant G2A A16C G22C U28A A41U has a self-cleavage of 0.11.
G2C A14C C15G U43A gave a self-cleavage of 0.01.
Variant G7A C10A A24U G40C has a self-cleavage of 0.02.
For G5U A24G A25U C42A, the self-cleavage was 0.03.
With G35C C37G C42U the self-cleavage was 0.12.
Work on C10A G22C A25U G35A yielded a self-cleavage of 0.04.
